The campaign covered roughly 310,000 compounds. About 2,200 (0.71%) showed an effect of 50% or more. Effects have a minus sign here. The list shows a part of the results.
These molecules were tested against human ether-à-go-go-related gene (hERG) potassium channel (human, UniProt Q12809) (assay: primary screen, population patch clamp on CHO cells stably expressing hERG).
human ether-à-go-go-related gene (hERG) potassium channel, sequence (Q12809 whole entry, looked up): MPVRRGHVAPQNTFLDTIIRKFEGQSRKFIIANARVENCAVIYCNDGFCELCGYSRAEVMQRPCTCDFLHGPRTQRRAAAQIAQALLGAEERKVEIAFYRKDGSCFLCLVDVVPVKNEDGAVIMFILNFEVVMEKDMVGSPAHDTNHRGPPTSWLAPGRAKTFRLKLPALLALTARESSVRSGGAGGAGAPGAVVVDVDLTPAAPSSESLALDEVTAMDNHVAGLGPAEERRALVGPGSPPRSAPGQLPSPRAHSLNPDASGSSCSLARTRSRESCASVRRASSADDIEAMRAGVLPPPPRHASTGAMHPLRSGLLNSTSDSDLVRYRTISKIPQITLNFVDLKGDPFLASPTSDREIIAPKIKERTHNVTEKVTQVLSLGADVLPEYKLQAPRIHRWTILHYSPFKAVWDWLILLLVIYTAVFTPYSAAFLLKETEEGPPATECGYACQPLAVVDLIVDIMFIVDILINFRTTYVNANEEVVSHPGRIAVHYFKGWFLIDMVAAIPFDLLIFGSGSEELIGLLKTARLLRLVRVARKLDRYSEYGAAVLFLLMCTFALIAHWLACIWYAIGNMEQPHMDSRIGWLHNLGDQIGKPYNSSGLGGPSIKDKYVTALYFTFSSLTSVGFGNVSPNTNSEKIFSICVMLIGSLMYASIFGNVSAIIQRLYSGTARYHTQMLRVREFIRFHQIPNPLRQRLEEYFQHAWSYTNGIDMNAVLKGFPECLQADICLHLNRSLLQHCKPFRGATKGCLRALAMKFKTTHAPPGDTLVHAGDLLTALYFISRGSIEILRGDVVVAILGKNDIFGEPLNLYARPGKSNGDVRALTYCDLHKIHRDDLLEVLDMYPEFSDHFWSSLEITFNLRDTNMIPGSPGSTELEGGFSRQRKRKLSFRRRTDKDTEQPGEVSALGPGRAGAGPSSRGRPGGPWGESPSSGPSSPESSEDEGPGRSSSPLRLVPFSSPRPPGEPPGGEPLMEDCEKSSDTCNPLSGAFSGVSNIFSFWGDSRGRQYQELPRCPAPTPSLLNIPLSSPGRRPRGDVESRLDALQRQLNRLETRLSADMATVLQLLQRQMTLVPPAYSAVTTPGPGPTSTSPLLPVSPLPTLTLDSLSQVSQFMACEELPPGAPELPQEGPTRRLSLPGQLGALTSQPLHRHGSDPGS
With `CN(C(=O)CN1CCN(c2ccccc2F)CC1)C1CCCc2ccccc21` (centres unmarked) the “hERG current change (%, negative = inhibition) at 1uM” value was 11.2%.
For `CCOc1ccccc1NC(=O)Cn1nnc(-c2ccc(OCC)c(OCC)c2)n1`, the “hERG current change (%, negative = inhibition) at 1uM” value was 23%.
For `NNC(=O)/C(=C\c1ccc(Br)cc1)NC(=O)c1cccs1`, the “hERG current change (%, negative = inhibition) at 1uM” value was 5.51%.
`N#Cc1c(N)nc(SCC(=O)NCCc2ccccc2)c(C#N)c1-c1cccs1` was tested, and the “hERG current change (%, negative = inhibition) at 1uM” value was 11%.
`CCCCc1cc(=O)oc2cc(OS(C)(=O)=O)ccc12` was tested, and the “hERG current change (%, negative = inhibition) at 1uM” value was -1.62%.
In the case of `COC(=O)c1sccc1NC(=O)CN(C)NS(=O)(=O)c1ccc(F)cc1`, the “hERG current change (%, negative = inhibition) at 1uM” value is reported as 4.39%.
In the case of `CSc1ccc(CN(C)CC(=O)Nc2ccccc2C(=O)NC2CC2)cc1`, the “hERG current change (%, negative = inhibition) at 1uM” value is reported as 4.85%.
For `COc1ccc(NC(=O)CCCC2CCCCC2)cc1S(=O)(=O)N1CCCCC1`, the “hERG current change (%, negative = inhibition) at 1uM” value was 15.2%.
With `Cc1cc(C)c(C(N)=O)c(Nc2cccc3ccccc23)n1` the “hERG current change (%, negative = inhibition) at 1uM” value was 11.1%.
For `CCOc1ccc(NC(=O)c2c(OC)cccc2OC)cc1`, the “hERG current change (%, negative = inhibition) at 1uM” value was 4.47%.
In the case of `CN1CCC(=NNC(=O)CN(c2ccc([N+](=O)[O-])cc2)S(=O)(=O)c2ccccc2)CC1`, the “hERG current change (%, negative = inhibition) at 1uM” value is reported as 4.81%.
For `Cc1cc(C)n2nc(SCC(=O)c3cccs3)nc2n1`, the “hERG current change (%, negative = inhibition) at 1uM” value was 10.8%.
In the case of `CCCn1nc(Oc2nc(N(C)C)nc(N(C)C)n2)ccc1=O`, the “hERG current change (%, negative = inhibition) at 1uM” value is reported as 11.5%.
`CN(C)S(=O)(=O)c1ccc(Cl)c(NC(=O)COC(=O)CCSc2ccccc2)c1` was tested, and the “hERG current change (%, negative = inhibition) at 1uM” value was 10.2%.
With `COc1ccccc1CCc1nnc(CCC(=O)NC(C)Cn2nc(C)cc2C)o1` (centres unmarked) the “hERG current change (%, negative = inhibition) at 1uM” value was 5.63%.
With `Cc1ccsc1-c1n[nH]c(=S)n1C1CCCCC1` the “hERG current change (%, negative = inhibition) at 1uM” value was 9.99%.
In the case of `Cc1ccc(NC(=O)CCC(=O)N/N=C/c2ccc([N+](=O)[O-])o2)cc1C`, the “hERG current change (%, negative = inhibition) at 1uM” value is reported as 0.171%.
For `O=C(Nc1nc(-c2ccccn2)cs1)C1CCCC1`, the “hERG current change (%, negative = inhibition) at 1uM” value was 5.96%.
For `CCN(CC)C(=O)CSc1ncnc2c(-c3ccc(OC)cc3)nsc12`, the “hERG current change (%, negative = inhibition) at 1uM” value was 15.7%.
For `CC1CCCCN1CCn1c(=S)[nH]c2cc3c(cc2c1=O)OCO3` (centres unmarked), the “hERG current change (%, negative = inhibition) at 1uM” value was 2.76%.
With `Cc1ccc(NC(=O)C(C)N2C(=O)c3ccccc3C2=O)c(C)c1` (centres unmarked) the “hERG current change (%, negative = inhibition) at 1uM” value was 9.42%.
In the case of `COc1cccc(OCc2cc(C(=O)N(C)C3CC(C)(C)NC(C)(C)C3)no2)c1`, the “hERG current change (%, negative = inhibition) at 1uM” value is reported as 3.5%.
With `O=C(CC1CC2CCC1C2)N1CCN(S(=O)(=O)c2ccccc2[N+](=O)[O-])CC1` (centres unmarked) the “hERG current change (%, negative = inhibition) at 1uM” value was 7.9%.
In the case of `O=C(CS(=O)(=O)c1ccccc1)N1CCCCC1`, the “hERG current change (%, negative = inhibition) at 1uM” value is reported as 5.96%.
For `O=C(O)Cn1c(-c2cscn2)nc2ccccc21`, the “hERG current change (%, negative = inhibition) at 1uM” value was 10.7%.
In the case of `COC(=O)C1=C(CSc2nc3ccccc3s2)NC(=O)NC1c1ccc(F)cc1` (centres unmarked), the “hERG current change (%, negative = inhibition) at 1uM” value is reported as 2.16%.
`COc1ccc(N(CC(=O)N/N=C(\C)c2ccccc2)S(=O)(=O)c2ccccc2)cc1` was tested, and the “hERG current change (%, negative = inhibition) at 1uM” value was 15.5%.
In the case of `O=C(O)c1ccc(-c2ccccc2C(F)(F)F)o1`, the “hERG current change (%, negative = inhibition) at 1uM” value is reported as 9.74%.
For `COc1ccc(/C=C/C(=O)Nc2cc(=O)n(C)c(=O)n2C)cc1`, the “hERG current change (%, negative = inhibition) at 1uM” value was 0.532%.
In the case of `O=C(NC1(C(F)(F)F)C(=O)Nc2c1c(=O)[nH]c(=O)n2Cc1ccccc1)c1ccc(Cl)cc1Cl` (centres unmarked), the “hERG current change (%, negative = inhibition) at 1uM” value is reported as 15.8%.
For `COc1ccc(C)cc1S(=O)(=O)N(CC(=O)Nc1ccc2c(c1)OCCO2)Cc1ccccc1`, the “hERG current change (%, negative = inhibition) at 1uM” value was 2.75%.
With `CC(NC(=O)CSc1nc(=O)cc(N)n1-c1ccccc1)c1ccccc1` (centres unmarked) the “hERG current change (%, negative = inhibition) at 1uM” value was 7.33%.
For `CCOC(=O)c1c(NC(=O)/C=C/C(=O)O)sc(C)c1-c1ccc(C(C)(C)C)cc1`, the “hERG current change (%, negative = inhibition) at 1uM” value was 10.3%.
`CCS(=O)(=O)c1nc(S(=O)(=O)c2ccc(Cl)cc2)c(NCCOC)s1` was tested, and the “hERG current change (%, negative = inhibition) at 1uM” value was 15.3%.
`CC(C)(C)C1CCC(=NNC(=O)C(=O)NCc2cccnc2)CC1` (centres unmarked) was tested, and the “hERG current change (%, negative = inhibition) at 1uM” value was 6.09%.
In the case of `O=C(NCc1ccc2c(c1)OCO2)c1ccc2c(c1)N(Cc1c(F)cccc1Cl)C(=O)CS2`, the “hERG current change (%, negative = inhibition) at 1uM” value is reported as 14.6%.
With `COc1ccc(NC(=O)c2cnc(SC)nc2)cc1` the “hERG current change (%, negative = inhibition) at 1uM” value was 9.84%.
With `CCC(=O)Nc1nnc(-c2ccc(OC)cc2)o1` the “hERG current change (%, negative = inhibition) at 1uM” value was 3.48%.
`CC(=O)N1CCN=C1SCc1cccc(C)c1` was tested, and the “hERG current change (%, negative = inhibition) at 1uM” value was 7.96%.
With `COc1cc(NC(=O)COC(=O)CCCC2=NS(=O)(=O)c3ccccc3N2)cc(OC)c1` the “hERG current change (%, negative = inhibition) at 1uM” value was 13%.
`C=CCN1C=C2C(=O)C(C)(OC(=O)CC)C(=O)C=C2C=C1CCCC` (centres unmarked) was tested, and the “hERG current change (%, negative = inhibition) at 1uM” value was 11.7%.
With `COC(=O)c1cc2c(s1)-c1ccccc1OC2` the “hERG current change (%, negative = inhibition) at 1uM” value was 5.96%.
In the case of `COc1cc(OC)cc(C(=O)Nc2nnc(-c3cccnc3)o2)c1`, the “hERG current change (%, negative = inhibition) at 1uM” value is reported as 6.04%.
`Cc1cc(NC(=O)CSc2nc(C(C)C)nc3sc4c(c23)CCC(C)C4)no1` (centres unmarked) was tested, and the “hERG current change (%, negative = inhibition) at 1uM” value was 9.13%.
In the case of `CC1CCCN(C(=O)c2ccc3nc[nH]c3c2)C1` (centres unmarked), the “hERG current change (%, negative = inhibition) at 1uM” value is reported as 8.91%.
In the case of `Cc1ccc(Nc2ncnc3c2cnn3C)c(C)c1`, the “hERG current change (%, negative = inhibition) at 1uM” value is reported as 13.5%.
With `COc1cccc(-c2c(-c3cc(OC)cc(OC)c3)n(C)c3ccc(-c4ccc5[nH]ccc5c4)cc23)c1` the “hERG current change (%, negative = inhibition) at 1uM” value was 11.8%.
For `COc1ccc([N+](=O)[O-])cc1-c1[nH]c(-c2ccc(C(=O)O)cc2)nc1-c1ccccc1`, the “hERG current change (%, negative = inhibition) at 1uM” value was 4.62%.
In the case of `N#CCC(=O)Nn1c(=S)[nH]c2ccccc2c1=O`, the “hERG current change (%, negative = inhibition) at 1uM” value is reported as 14.5%.
With `CCN(c1ccccc1)S(=O)(=O)c1ccc(OC)c(NC(=O)Cc2ccc(OC)c(OC)c2)c1` the “hERG current change (%, negative = inhibition) at 1uM” value was 4.52%.
`Cc1cccc(NC(=O)N(Cc2cc3cc(C)cc(C)c3[nH]c2=O)CC2COCCO2)c1` (centres unmarked) was tested, and the “hERG current change (%, negative = inhibition) at 1uM” value was 1.25%.
For `COC(=O)c1ccc(N=C(c2ccccc2)c2c(O)n(C)c(=O)n(C)c2=O)cc1`, the “hERG current change (%, negative = inhibition) at 1uM” value was 11.6%.
With `Cc1nn(-c2ccccc2)c(Cl)c1C(=O)N1CCN(c2ncnc3c2cnn3-c2ccccc2)CC1` the “hERG current change (%, negative = inhibition) at 1uM” value was 13.3%.
With `COCCSc1nnc(NC(=O)C2CC(=O)N(CCc3ccc(F)cc3)C2)s1` (centres unmarked) the “hERG current change (%, negative = inhibition) at 1uM” value was 15.9%.
With `CC(C)(C)NC(=O)Nc1ccc(F)c(Cl)c1` the “hERG current change (%, negative = inhibition) at 1uM” value was 2.78%.
With `Cc1ccc(NC(=O)CCNC(=O)Cn2cnc3ccccc3c2=O)cc1F` the “hERG current change (%, negative = inhibition) at 1uM” value was 11.5%.

Source: paper PMC4336329 (PLoS ONE, 2015)
